Data reported in PMC6919601, “Identification of Plasmodium dipeptidyl aminopeptidase allosteric inhibitors by high throughput screening” (PLoS ONE, 2019).
The campaign covered roughly 110,000 compounds. About 230 (0.21%) showed an effect of 50% or more. This is one part of the list.

target: DPAP1 (Plasmodium falciparum, UniProt Q8IIJ9); experiment: primary screen, percent inhibition; read by cleavage of a fluorogenic dipeptide substrate; higher = more effect of the substance; design: species or system P. falciparum D10 trophozoite lysates; single well
Sequence (Q8IIJ9 whole entry, looked up): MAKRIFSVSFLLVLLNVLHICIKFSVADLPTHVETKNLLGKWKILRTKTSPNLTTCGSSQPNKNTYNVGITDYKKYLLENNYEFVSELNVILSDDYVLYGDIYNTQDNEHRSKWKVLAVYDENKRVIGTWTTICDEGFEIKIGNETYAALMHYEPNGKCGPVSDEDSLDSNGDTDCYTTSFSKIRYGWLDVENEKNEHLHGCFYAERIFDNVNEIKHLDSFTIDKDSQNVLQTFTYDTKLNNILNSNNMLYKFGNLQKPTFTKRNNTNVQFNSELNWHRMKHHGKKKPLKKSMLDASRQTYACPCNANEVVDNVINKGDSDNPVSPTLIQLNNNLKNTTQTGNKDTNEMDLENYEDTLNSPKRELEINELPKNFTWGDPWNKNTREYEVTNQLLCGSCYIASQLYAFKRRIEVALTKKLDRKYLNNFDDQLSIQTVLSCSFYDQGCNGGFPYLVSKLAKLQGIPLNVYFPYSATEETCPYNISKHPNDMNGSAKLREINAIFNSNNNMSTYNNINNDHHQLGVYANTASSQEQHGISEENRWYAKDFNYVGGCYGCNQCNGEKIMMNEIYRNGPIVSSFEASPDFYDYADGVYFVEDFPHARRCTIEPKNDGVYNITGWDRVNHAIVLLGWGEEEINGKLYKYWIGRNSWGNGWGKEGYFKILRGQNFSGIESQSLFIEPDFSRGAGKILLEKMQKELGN
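Further: 30 min substrate incubation versus DMSO and 10 µM JCP410 controls.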

Structure (SMILES)	% Inhibition @ 10 uM [%]
COC(=O)C12CC3CC(CC(N)(C3)C1)C2	-5.48
COc1ccc(-c2oc(=O)n(CCc3ccccc3)c2-c2ccc(OC)cc2)cc1	-2.63
CC(C)c1cc(C(C)C)c(S(=O)(=O)Nc2cccc3cccnc23)c(C(C)C)c1	-6.29
CCOc1cc(C2c3c(oc4ccccc4c3=O)C(=O)N2c2nc(C)c(C(=O)OC)s2)ccc1O (stereo not shown)	69.6
CCCCCN1C(C(=O)c2ccccc2)=C(NC(=O)Cc2ccccc2)c2ccccc2S1(=O)=O	3.63
O=C(Nc1nccs1)C1CC(=O)N(c2ccc(Cl)cc2)C1 (stereo not shown)	4.3
Cc1ccc(C2C(C#N)=C(N)Oc3c2c(C)nn3-c2cccnc2)cc1 (stereo not shown)	-0.988
COc1ccccc1CC(=N)NOC(=O)c1ccccc1OC	5.37
COc1ccccc1CNCc1ccc(C)cc1	-1.96
CCN(CC)C(=O)/C(=C/c1cn(CC)c2ccccc12)NC(=O)c1ccc(C)cc1	-1.74
CCC(=O)Nc1c2c(nn1-c1cccc(C)c1C)CS(=O)(=O)C2	2.35
Cc1cc(C)c(OCCCCCCN2CCNCC2)c(C)c1	1.27
CCCCCCNCc1cccc(Br)c1	6.98
COc1cc(-n2nc(C)c(/C=N/c3ccc(O)cc3C)c2O)ccc1Cl	4.67
CNS(=O)(=O)c1cn(CC(=O)NC2CCCC2)cc1S(=O)(=O)NC	2.23
Cc1cc(C)nc(NCCCO)n1	-3.5
Cc1ccc(NC(=O)c2cccc([N+](=O)[O-])c2C)c(C)c1	0.247
O=C(CCn1nc(-c2ccccc2)c2ccccc2c1=O)NC1CCCCC1	-1.17
O=C(c1ccccc1[N+](=O)[O-])N1CCN(c2ccc(F)cc2)CC1	-2.02
COc1ccc(Nc2nc(Cl)nc(N(c3ccccc3)c3ccccc3)n2)cc1	0.132
COC(=O)C1=C(C)OC(=O)C1(NS(=O)(=O)c1ccc(Cl)cc1)C(F)(F)F (stereo not shown)	-1.52
O=C(NC1CCN(Cc2ccccc2)CC1)c1cc(-c2ccco2)[nH]n1	-0.899
O=C(Nc1cccc2ccccc12)c1ccc(Cl)c([N+](=O)[O-])c1	-1.38
CC(C)OCCCNC(=O)C1CCN(S(=O)(=O)c2cccc3nsnc23)CC1	-3.35
CCSc1nc(C)c(CCOc2cccc(C)c2)c(O)n1	0.686

Structure (SMILES)	% Inhibition @ 10 uM [%]
CCCN(CCO)Cc1ccc(Cl)cc1	1.62
COc1ccccc1CNC(=O)C1CCCN(S(=O)(=O)c2cccc3cccnc23)C1 (stereo not shown)	-2.92
c1ccc(-c2cc3c(-n4cccc4)ncnc3o2)cc1	-4.93
CCc1ccc(OCc2cc(=O)n3oc(C)cc3n2)cc1	-0.495
CCOC(=O)N1CCN(c2ncnc3c2cnn3-c2ccc(C)cc2C)CC1	-1.29
CC1=C(C)CC(C(=O)Nc2cccc(F)c2)C(C(=O)O)C1 (stereo not shown)	-2.22
O=C(O)c1cnc(-c2ccccc2)nc1	6.31
Nc1nnnn1NCc1ccccc1OCc1ccc(F)cc1	-4.35
CC(C)(C)c1[nH]nc2c1C(c1ccc(Cl)cc1)C(C#N)=C(N)O2 (stereo not shown)	1.58
CN(C)c1nc2ccc(OCCN3CCCCC3)cc2s1	-5.86
FC(F)(F)c1cccc(N2CCN(C3CCN(CCc4ccccc4)CC3)CC2)c1	1.88
C#CCOc1c(Cl)cc(C2C(C#N)=C(N)Oc3cc4c(cc32)OCO4)cc1OC (stereo not shown)	-0.366
CCCn1c(=O)c(=O)[nH]c2c(=O)oc3ccccc3c21	1.75
CCc1ccc2occ(CC(=O)N(Cc3ccc(OC)cc3)C3CCS(=O)(=O)C3)c2c1 (stereo not shown)	11.3
CC(C)NC(=O)C(Cc1ccccc1)N1Cc2ccccc2C1=O (stereo not shown)	-2.41
CSc1nc(C)c(C)c(C)c1C#N	2.4
COc1ccc(C(=O)Nc2nnc(CCSc3cc(Cl)ccc3Cl)s2)cc1OC	9.39
CCc1ccc(-c2nc(CSCC(=O)NC3CCC(C)CC3)c(C)o2)cc1 (stereo not shown)	-6.64
COc1ccc(C(=O)NCC(=O)c2ccccc2)cc1	-3.65
CCn1cc(CNC(=O)C23CC4CC(CC(C4)C2)C3)c(C)n1	-3.37
CC(CC(=O)N[C@@H](C)c1ccccc1)C(=O)N[C@@H](C)c1ccccc1 (stereo partly shown)	0.132
CC(C)(C)NC(=O)/C=C/c1ccc(Cl)cc1	3
Cc1ccc(N2C(=O)c3ccc(C(=O)Nc4cc(C(=O)O)cc(C(=O)O)c4)cc3C2=O)cc1C	0.774
CCC(C)(C)c1ccc(OCC(=O)Nc2ccc(O)cc2C(=O)O)cc1	12.1
CCOC(=O)N1CCN(C(=O)c2cc(C)nc3c2c(C)nn3-c2ccc(C)cc2)CC1	0.44

Structure (SMILES)	% Inhibition @ 10 uM [%]
CCOc1ccc(-c2nonc2NC(=O)COc2ccc(Cl)cc2C)cc1OCC	-6.98
COc1ccc(C(=O)Nc2ccc(C3(C#N)CCCC3)cc2)cc1OC	-1.28
O=C(Nc1ccc(Br)cc1)c1cccc(S(=O)(=O)N2CCCCC2)c1	-7.1
COc1ccc(S(=O)(=O)Cc2ccc(C(=O)N3CC(C)CC(C)C3)o2)cc1 (stereo not shown)	-4.96
COC(=O)c1cc2ccc(Br)cc2[nH]1	-7.52
CC(=O)c1cc(C#N)c(SCCCCSc2nc(C)c(C(C)=O)cc2C#N)nc1C	-1.6
CC1=CC2=NC(=O)/C(=C\c3cccn3CCCOc3ccccc3Cl)C(=N)N2O1	-1.43
Cc1cccn2cc(CNC(=O)c3ccc(C(F)(F)F)cc3)nc12	-1.72
CN(C)C(=O)Nc1c(O)oc2ccccc2c1=O	-4.76
CCS(=O)(=O)N1CCC(C(=O)NCCCN2CCC(Cc3ccccc3)CC2)CC1	3.79
CC1CCN(S(=O)(=O)N2CCCC(C(=O)N3CCC(C(N)=O)CC3)C2)CC1 (stereo not shown)	0.49
CCC(C)NC(=O)CNS(=O)(=O)c1ccc(C)cc1 (stereo not shown)	5.66
N#Cc1nc(COc2ccccc2Cl)oc1NCCN1CCOCC1	-1.98
Cc1sc(NC(=O)C2C3CCC(O3)C2C(=O)O)c(C(N)=O)c1-c1ccc(C(C)C)cc1 (stereo not shown)	1.39
Cc1ccc(CN(C(=O)c2oc3c(C)c(C)ccc3c2C)C2CCS(=O)(=O)C2)o1 (stereo not shown)	0.569
COc1ccc(-c2csc(N)n2)c(OC)c1	6.81
CC(Oc1ccc(Cl)cc1Cl)C(=O)NCC1CCCO1 (stereo not shown)	-6.25
Cc1ccc(C(C2=C(O)CCCC2=O)C2C(=O)CCCC2=O)o1 (stereo not shown)	-3.98
Cc1ccc(S(=O)(=O)Cc2nc(-c3ccc(C(=O)N4CCOCC4)cc3)oc2C)cc1	-5.73
Cc1nn(CC(=O)NCC(C)c2ccccc2)c(=O)c2cccn12 (stereo not shown)	-4.93
O=C(O)c1ccc2c(c1)C(=O)N(c1cccc(O)c1)C2=O	-3.55
O=C(c1cccs1)N(Cc1ccccc1)Cc1ccccc1	-0.687
CC(C)CC(C(=O)NCC#N)c1cccc(-c2ccc(S(=O)(=O)N3CCN(C=O)CC3)cc2)c1 (stereo not shown)	-1.41
CC1CC(C)CN(C(=O)c2ccc(CNS(=O)(=O)c3cccc(C(F)(F)F)c3)cc2)C1 (stereo not shown)	3.72
COc1ccc(C2=NN(c3ccccc3)C(c3cccs3)C2)cc1 (stereo not shown)	0.247

Structure (SMILES)	% Inhibition @ 10 uM [%]
Cc1ccccc1-c1nc(Cn2c(=O)cc(C)c3c(C)nn(-c4cccc(F)c4)c32)c(C)o1	-1.87
CC(NC(=O)Cn1cccc1)c1ccccc1 (stereo not shown)	-0.692
CC1(C)CC(Nc2nc(NC3CC(C)(C)NC(C)(C)C3)nc(N3CCOCC3)n2)CC(C)(C)N1	-8.11
CCNC(=O)Nc1nc2ccccc2s1	2.92
O=C(Cn1nc(-c2ccc(Cl)cc2)ccc1=O)NCCCN1CCC(Cc2ccccc2)CC1	-0.0542
COc1ccc(-c2nnc3sc(NC(=O)c4ccccc4C)nn23)cc1OC	0.00665
Cc1nnc2c3c4c(sc3ncn12)CC(C)CC4 (stereo not shown)	2.38
Cc1cc2c3c(c1)OC(C)(C)CC3OC(O)C2 (stereo not shown)	2.76
O=C(Nc1ccc(O)cc1)c1cccc(F)c1	-6.02
Cc1nn(CCCC(=O)N2CC(C)CC(C)C2)c(=O)c2cc3sccc3n12 (stereo not shown)	-1.58
CCc1ccc(-c2csc(Nc3cccc(C(F)(F)F)c3)n2)cc1	-3.97
O=C(NC1(C(F)(F)F)NC(=O)N(CCc2ccccc2)C1=O)C1CC1 (stereo not shown)	-0.992
CCOc1ccc(CCNC(=O)c2csc3c2CCCC3)cc1	-3.21
CCN1C(=O)C(CC(=O)O)S/C1=N/c1cccc(Cl)c1Cl (stereo not shown)	-2.83
CC1=C(C(=O)Nc2ccc(C)cn2)C(c2cccc(Oc3ccccc3)c2)C2=C(O)CCCC2=N1 (stereo not shown)	9.13
COc1ccc(CNC(=O)CN(c2ccc(C)c(C)c2)S(C)(=O)=O)cc1	5.12
CC(C)(C)C(=O)NCc1nc2ccccc2n1Cc1c(F)cccc1Cl	6.01
CN1C(=O)CCC(CCC(=O)O)(c2ccccc2O)C1=O (stereo not shown)	2.89
CCCNC(=O)CN(c1ccc(OCC)cc1)S(C)(=O)=O	-4.62
COc1ccc(C(=O)c2sc3nc4c(c(C(F)(F)F)c3c2N)CN(C(C)=O)CC4)cc1	10.6
CCn1cc(S(=O)(=O)NCc2ccc(OC)c(OC)c2)cn1	-4.42
c1ccc(-c2cc(N3CCCC3)n3cnnc3n2)cc1	-2.57
CNS(=O)(=O)c1ccc(/N=C/c2c(C)nn(-c3ccc(C)cc3C)c2O)cc1	0.674
Cn1nc(C(=O)NC2CCCCC2)c2c1-c1ccsc1CC2	-4.27
CCC(=O)N1c2ccccc2N=C2CC(C)(C)CC(O)=C2C1c1cccs1 (stereo not shown)	-2.54
